Assay results taken from PMC6919601, “Identification of Plasmodium dipeptidyl aminopeptidase allosteric inhibitors by high throughput screening” (PLoS ONE, 2019).
Among all 110,000 compounds or so, about 230 (0.21%) showed an effect of 50% or more. Some of the results follow.

target: DPAP1 (Plasmodium falciparum, UniProt Q8IIJ9); assay: primary screen, percent inhibition; read by cleavage of a fluorogenic dipeptide substrate; higher = more effect of the substance; design: species or system P. falciparum D10 trophozoite lysates; single well
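Note: 30 min substrate incubation versus DMSO and 10 µM JCP410 controls.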

DPAP1, sequence (Q8IIJ9 whole entry, looked up): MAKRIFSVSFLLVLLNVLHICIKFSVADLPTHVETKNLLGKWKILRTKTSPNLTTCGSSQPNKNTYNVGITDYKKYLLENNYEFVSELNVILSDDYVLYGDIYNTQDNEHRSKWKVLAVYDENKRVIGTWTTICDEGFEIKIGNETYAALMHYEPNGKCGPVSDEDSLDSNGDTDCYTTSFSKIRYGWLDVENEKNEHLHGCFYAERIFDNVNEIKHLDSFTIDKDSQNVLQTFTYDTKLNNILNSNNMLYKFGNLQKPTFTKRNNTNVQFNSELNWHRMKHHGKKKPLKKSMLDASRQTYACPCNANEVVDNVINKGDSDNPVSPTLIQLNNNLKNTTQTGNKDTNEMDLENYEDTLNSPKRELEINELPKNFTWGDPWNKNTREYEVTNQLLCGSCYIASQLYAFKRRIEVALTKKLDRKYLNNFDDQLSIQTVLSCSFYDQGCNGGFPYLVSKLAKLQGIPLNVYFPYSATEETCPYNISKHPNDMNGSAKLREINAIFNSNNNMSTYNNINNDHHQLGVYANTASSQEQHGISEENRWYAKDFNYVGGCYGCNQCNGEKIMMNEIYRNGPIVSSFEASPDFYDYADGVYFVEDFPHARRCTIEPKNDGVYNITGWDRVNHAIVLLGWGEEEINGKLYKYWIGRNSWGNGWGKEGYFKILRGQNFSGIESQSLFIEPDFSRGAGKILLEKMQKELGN

In order of rising “% Inhibition @ 10 uM” value:
1. CC(C)NC(=O)N1CCN(c2ccncc2S(=O)(=O)N2CCCCC2)CC1  -10.2%
2. Nc1ccc2c(c1)C(=O)Cc1ccccc1S2  -8.83%
3. CC1=CC2=NC(=O)/C(=C\c3cc(C)n(-c4ccc(F)cc4)c3C)C(=N)N2O1  -7.05%
4. Cc1ccsc1/C=C1/SC(=O)N(CC(=O)N2CCCCC2)C1=O  -5.45%
5. CCOc1cccc(/C=C2\NC(=O)N(Cc3ccc(Cl)cc3)C2=O)c1O  -4.93%
6. O=C(NCCc1ccc(Cl)cc1)C1CCN(S(=O)(=O)c2cccs2)CC1  -4.79%
7. O=C(NC1CCCc2ccccc21)C1CCN(S(=O)(=O)c2ccc3nc(O)ccc3c2)CC1 (stereo not shown)  -4.68%
8. CCCC1CCc2c(sc(NC(=O)C3C4CCC(C4)C3C(=O)O)c2C(N)=O)C1 (stereo not shown)  -4.6%
9. Cc1ccc2c(c1)-c1c(cnn1CC(=O)NCCCN1CCN(C)CC1)CO2  -4.17%
10. Cc1ccccc1OCC(=O)Nc1ccc2ccccc2c1  -4.06%
11. Cc1cccc(OCC(=O)N2CC3(C)CC2CC(C)(C)C3)c1C (stereo not shown)  -3.51%
12. N#CCNC(=O)C(CS(=O)(=O)Cc1ccccc1OC(F)F)c1cccc(-c2ccccc2)c1 (stereo not shown)  -3.49%
13. COc1ccc(C2C(c3nc(-c4ccccc4)cs3)=C(N)Oc3c2c(=O)oc2ccccc32)cc1 (stereo not shown)  -3.27%
14. CCOc1ccccc1NC(=O)C(C)N(c1ccc(OC)cc1)S(C)(=O)=O (stereo not shown)  -3.18%
15. COc1cc(C)c(C#N)c(OC)n1  -3.04%
16. CC(C)CC(C(=O)NCC#N)c1cccc(-c2ccc(S(=O)(=O)NCCN3CCOCC3)cc2)c1 (stereo not shown)  -3.04%
17. CC(C)Nc1nc(Cl)nc(N2CCOCC2)n1  -2.91%
18. COC(=O)c1ccccc1C(=O)c1cccc2ccccc12  -2.47%
19. O=C(/C=C\Nc1ccccc1Br)c1ccc2c(c1)OCO2  -2.24%
20. O=S(=O)(c1cccc(-c2csc(-c3ccccc3)n2)c1)N1CCCCC1  -1.82%
21. Cc1ccc(C)c(OCC(=O)Nc2ccccc2C(=O)Nc2ccccc2)c1  -1.6%
22. CCO/C(O)=C1\SCC(C(=O)NCc2cccc(OC)c2)N=C1C (stereo not shown)  -1.6%
23. Cc1cccc2c1-c1sc(C(=O)NC3CCCCC3)cc1CO2  -1.37%
24. COc1ccc(NC(=O)C2CCN(C(=O)c3ccc(OC)c(OC)c3)CC2)cc1OC  -1.17%
25. CC1=C(C(=O)Nc2ccc(F)cc2)C(c2cccc(Cl)c2)C2=C(O)CC(C)(C)CC2=N1 (stereo not shown)  -0.864%
26. O=C(C1CCCN(S(=O)(=O)c2cccc3nsnc23)C1)N1CCC2(CC1)OCCO2 (stereo not shown)  -0.719%
27. CCN(Cc1ccccc1)C(=O)c1cc(C)[nH]n1  -0.717%
28. CN1CCN(C(=O)c2nn3c(C(F)(F)F)cc(-c4ccc(Cl)cc4)nc3c2Cl)CC1  -0.597%
29. COCCCNC(=O)c1ccc2c(c1)nc(C)n2-c1ccc(Br)cc1  -0.458%
30. CCOC(=O)c1cnc2c(OC)ccc(C)c2c1O  -0.386%
31. Cc1ccc(-n2nc3c(=O)n(CCCC(=O)N4CCC(C(N)=O)CC4)nc(C)c3c2C)cc1  -0.307%
32. CC(NC(=O)Cn1nc(-c2ccccc2)ccc1=O)c1ccccc1 (stereo not shown)  0.514%
33. COc1ccccc1-n1c(S)nnc1-c1nn(C)cc1Cl  0.64%
34. CCC(Oc1ccccc1)C(=O)Nc1ccc(N(CC)CC)cc1 (stereo not shown)  0.755%
35. COc1cccc(C2(C)SC(NC(C)=O)=NN2C(C)=O)c1 (stereo not shown)  0.813%
36. COc1ccc(CCNCc2ccc(C(=O)O)s2)cc1OC  1.03%
37. Cc1cc(C)c(NC(=O)C2CCCN2Cc2ccccc2)c(C)c1 (stereo not shown)  1.57%
38. COC(=O)c1c(N)n(-c2cccc(C)c2C)c2nc3ccccc3nc12  1.96%
39. CCCOC(=O)c1ccc(Cn2nnc3sc4c(c3c2=O)CCCC4)cc1  2.41%
40. Cc1cc(C)n2nc(SCC(=O)NCc3ccccc3Cl)nc2n1  2.79%
41. CC1CCN(C(=O)c2ccc(NC(=O)c3cccs3)cc2)CC1  3.66%
42. Cc1nn(-c2ccccc2)c2c1C(c1c(F)cccc1Cl)C(C#N)=C(N)O2 (stereo not shown)  4.08%
43. CCN1CCCC1CNC(=O)C1c2ccccc2C(=O)N(CCOC)C1c1c[nH]c2ccccc12 (stereo not shown)  5.62%
44. CCN(CC)S(=O)(=O)c1ccc(NC(=O)c2ccc(C(C)(C)C)cc2)cc1  6.15%
45. COc1ccc(OC)c([N+]2=C3SCCCN3C(O)(c3ccc(F)cc3)C2)c1 (stereo not shown)  6.89%
46. Cc1nnc(N2CCC(C(=O)NCCc3cccs3)CC2)c2nn(-c3ccccc3)c(C)c12  6.89%
47. CC1=CC(C)(C)N(C)c2ccc(C3(C)CC(C)(C)N(C)c4ccccc43)cc21 (stereo not shown)  7.15%
48. O=C(O)/C=C/C(=O)NCCC1=CCCCC1  7.49%
49. O=C(Nc1ccccn1)c1cc2cc(Br)ccc2oc1=O  12.7%
